# Source: PubChem BioAssay AID624296 (National Center for Advancing Translational Sciences (NCATS), 2012)
# Where “and” joins values, the source holds several entries; their conditions need not be identical. Equal values may be shown once. The whole screen tested about 350,000 compounds, of which about 9,900 (2.8%) were called active. Inconclusive means that the source gave no clear call. Such entries were picked first, then a sample of the others. Calls follow the shape of the dose curve; as a rule, active = well fitted activation curve with a large enough effect; inconclusive = small, poorly fitted or top-dose-only effect; inactive = no such curve, though single readings can be large or run the other way. A potency beside an inconclusive call is a rough fit, not a confirmed value.
# Experiment: A quantitative high throughput screen for small molecules that induce DNA re-replication in MCF 10a normal breast cells. Also: nearly all actives have a fitted effect of over 50% in size.
# Conditions: MCF 10A DNA re-replication, Hoechst nuclear intensity, 48 h; series mostly up to 46.1 µM
# Potency is read from the fitted curve at half-maximal effect; tags tell the direction and shape of the fitted curve.
row,SMILES,Potency
1,CCOC(=O)/C(C#N)=C1/SC(C)C(=O)N1c1ccc(Br)cc1 (centres undefined),"inconclusive: 20.6 µM [activator, single point]"
2,CCC(=NCCC(c1ccccc1)c1ccccc1)c1c(O)n(C)c(=O)n(C)c1=O,active: 8.2 µM
3,Fc1ccc(C[n+]2c(-c3ccccc3)cc(-c3ccccc3)cc2-c2ccccc2)cc1,inactive
4,CCCOP(=O)(OCCC)C(Nc1ccc(C(C)C)cc1)c1ccc([N+](=O)[O-])cc1 (centres undefined),"inconclusive: 4.11 µM [activator, full curve, poor fit]"
5,COc1cc(-c2ccc(=O)[nH]n2)ccc1OC(F)F,"inconclusive: 6.51 µM [activator, single point]"
6,N/C(=N\N=C/c1ccc(-c2ccc(O)c(C(=O)O)c2)o1)N[N+](=O)[O-],inactive
7,CCCC(CCC)C(=O)OC1C[C@H]2CC[C@@H](C1)[N+]2(C)C (some centres undefined),"inactive and inconclusive: 29.9 µM [activator, partial curve, poor fit]"
8,CC(C)C[C@H]1C(=O)N2CCC[C@H]2[C@]2(O)O[C@](NC(=O)[C@@H]3C=C4c5cccc6[nH]c(Br)c(c56)CC4N(C)C3)(C(C)C)C(=O)N12 (some centres undefined),"inconclusive: 11.6 µM [activator, partial curve, poor fit]"
9,CCOc1ccc(-c2c(C)n(-c3ccc(OCC)cc3)c3[n+]2CCCCC3)cc1,"inconclusive: 25.9 µM [activator, single point]"
10,COC(=O)C1=C(c2ccc(OC)c(OC)c2)C[C@@H]2CC[C@H]1N2C(=O)N1CCCCC1,inactive
11,N#CC(C#N)=NNc1ccc([N+](=O)[O-])cc1,active: 18.4 µM
12,O=C1NC(=O)N(c2cccc(Br)c2)C(=O)/C1=C/c1ccsc1,inactive
13,FC(F)(F)c1cc(-c2ccccc2)nc(N2CCCCCC2)n1,"inconclusive: 20.6 µM [activator, single point]"
14,COc1ccc(-n2cnc3cc(C(=O)N4CCC5(CC4)OCCO5)ccc32)cc1,"inconclusive: 6.51 µM [activator, single point]"
15,CCSc1cc(C2C(C#N)=C(N)Oc3n[nH]c(C)c32)c(C)o1 (centres undefined),"inconclusive: 31.6 µM [activator, single point]"
16,O=C1NC(=O)N(Cc2ccc(F)cc2)C(=O)/C1=C\C=C\c1ccco1,active: 3.66 µM
17,O=C(Cn1c(=O)oc2cc(S(=O)(=O)N3CCCC3)ccc21)Nc1cccc(C(F)(F)F)c1,"inconclusive: 32.6 µM [activator, partial curve, poor fit]"
18,O=C(c1ccc(N2CCCCC2)c([N+](=O)[O-])c1)N1CCC2(CC1)OCCO2,"inconclusive: 13 µM [activator, partial curve]"
19,O=c1[nH]c2ccccc2n1C1CCN(CCCC(c2ccc(F)cc2)c2ccc(F)cc2)CC1,"inconclusive: 11.6 µM [activator, single point]"
20,Cc1nc2c(-c3ccc(F)cc3)c(C)nn2c(C)c1CCC(=O)N1CCC2(CC1)OCCO2,inactive
21,ClC1=C(Cl)C2(Cl)C(CBr)CC1(Cl)C2(Cl)Cl (centres undefined),active: 18.8 µM
22,C=CCOC(Cn1ccnc1)c1ccc(Cl)cc1Cl (centres undefined),"inconclusive: 23.7 µM [activator, partial curve, poor fit]"

row,SMILES,Potency
1,Brc1ccc2c(c1)C(OC1CN3CCC1CC3)c1ccccc1CS2 (centres undefined),"inconclusive: 18.4 µM [activator, single point]"
2,Cc1cc2c(C(C)C)c(O)c(O)c(C=O)c2c(O)c1-c1c(C)cc2c(C(C)C)c(O)c(O)c(C=O)c2c1O,"inconclusive: 3.66 µM [activator, full curve]"
3,CN1CCN(C(=O)COc2ccc(C(C)(C)C)cc2Br)CC1,"inconclusive: 29.1 µM [activator, single point]"
4,O=C1NC(=O)N(Cc2ccccc2Cl)C(=O)/C1=C/c1cccs1,"inconclusive: 29.1 µM [activator, single point]"
5,CCOP(=O)(OCC)C(O)c1ccc(N(C)C)cc1 (centres undefined),inactive
6,CN1CCC(OC(=O)c2ccccc2)CC1,"inconclusive: 10.3 µM [activator, partial curve]"
7,O=C(/C=C/c1ccccc1)C1C(=O)c2ccccc2C1=O,"inconclusive: 3.66 µM [activator, full curve]"
8,O=C(c1cccc(Cl)c1)C1CCCN(Cc2ccon2)C1 (centres undefined),inactive
9,CC(C)c1ccc(N2C(=O)NC(=O)/C(=C/C=C/c3ccco3)C2=O)cc1,active: 6.51 µM
10,CC(CN(C)C1CCN(C)CC1)c1ccccc1 (centres undefined),"inconclusive: 1.03 µM [activator, single point]"
11,COC(=O)c1cn(CCOc2ccccc2)c2ccccc12,"inconclusive: 29.1 µM [activator, single point]"
12,COc1cccc2c1cc([N+](=O)[O-])c1c(C(=O)O)cc3c(c12)OCO3,"inconclusive: 4.11 µM [activator, single point]"
13,COC1C(O)C(C)OC(OC2C(Oc3cccc4c(O)c5c(=O)oc6ccc(C)c7c(=O)oc(c34)c5c67)OC(C)C(O)C2O)C1O (centres undefined),active: 8.2 µM
14,CCCCCCCCCCCC[N+](C)(C)CCOc1ccccc1,"inconclusive: 13.3 µM [activator, full curve, poor fit]"
15,Cc1csc(=N)n1Cc1ccccc1,inactive
16,O=C(CN1C(=O)S/C(=C\C=C\c2ccccc2)C1=O)Nc1ccccc1C(=O)O,"inconclusive: 23.1 µM [activator, single point]"
17,CCCCCCCCn1sccc1=O,active: 20.6 µM
18,O[C@@H]1CCCN2CCc3c([nH]c4ccccc34)[C@H]12,inactive
19,Nc1nc(O)c(-c2ccccc2)o1,inactive
20,COc1ccc(/C=N\NC(=O)c2cccc(F)c2)cc1COc1ccccc1,"inconclusive: 32.6 µM [activator, partial curve, poor fit]"
21,COc1ccc([N+](=O)[O-])cc1N=Cc1c(O)n(CCc2ccccc2)c(=O)n(C(C)C)c1=O,"inconclusive: 0.731 µM [activator, partial curve, poor fit]"
22,C=C1C(O)[C@@H]2O[C@]3(CC[C@H](/C=C/C(C)[C@@H]4CC(C)=CC5(O[C@H](C[C@@](C)(O)C(=O)O)CCC5O)O4)O3)CC[C@H]2O[C@@H]1C(O)CC(C)[C@H]1OC2(CCCCO2)CCC1C (some centres undefined),"inconclusive: 32.6 µM [activator, partial curve, poor fit]"
